Source: PMC4336329 (PLoS ONE, 2015)
Among all 310,000 compounds or so, about 14,000 (4.5%) showed an effect of 50% or more. Effects have a minus sign here. The list shows a part of the results.

target: human ether-à-go-go-related gene (hERG) potassium channel (human, UniProt Q12809); assay: primary screen, population patch clamp on CHO cells stably expressing hERG
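Further: peak tail current of the secondary pulse compared with the same well before compound.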

Chain of human ether-à-go-go-related gene (hERG) potassium channel (Q12809 whole entry, looked up): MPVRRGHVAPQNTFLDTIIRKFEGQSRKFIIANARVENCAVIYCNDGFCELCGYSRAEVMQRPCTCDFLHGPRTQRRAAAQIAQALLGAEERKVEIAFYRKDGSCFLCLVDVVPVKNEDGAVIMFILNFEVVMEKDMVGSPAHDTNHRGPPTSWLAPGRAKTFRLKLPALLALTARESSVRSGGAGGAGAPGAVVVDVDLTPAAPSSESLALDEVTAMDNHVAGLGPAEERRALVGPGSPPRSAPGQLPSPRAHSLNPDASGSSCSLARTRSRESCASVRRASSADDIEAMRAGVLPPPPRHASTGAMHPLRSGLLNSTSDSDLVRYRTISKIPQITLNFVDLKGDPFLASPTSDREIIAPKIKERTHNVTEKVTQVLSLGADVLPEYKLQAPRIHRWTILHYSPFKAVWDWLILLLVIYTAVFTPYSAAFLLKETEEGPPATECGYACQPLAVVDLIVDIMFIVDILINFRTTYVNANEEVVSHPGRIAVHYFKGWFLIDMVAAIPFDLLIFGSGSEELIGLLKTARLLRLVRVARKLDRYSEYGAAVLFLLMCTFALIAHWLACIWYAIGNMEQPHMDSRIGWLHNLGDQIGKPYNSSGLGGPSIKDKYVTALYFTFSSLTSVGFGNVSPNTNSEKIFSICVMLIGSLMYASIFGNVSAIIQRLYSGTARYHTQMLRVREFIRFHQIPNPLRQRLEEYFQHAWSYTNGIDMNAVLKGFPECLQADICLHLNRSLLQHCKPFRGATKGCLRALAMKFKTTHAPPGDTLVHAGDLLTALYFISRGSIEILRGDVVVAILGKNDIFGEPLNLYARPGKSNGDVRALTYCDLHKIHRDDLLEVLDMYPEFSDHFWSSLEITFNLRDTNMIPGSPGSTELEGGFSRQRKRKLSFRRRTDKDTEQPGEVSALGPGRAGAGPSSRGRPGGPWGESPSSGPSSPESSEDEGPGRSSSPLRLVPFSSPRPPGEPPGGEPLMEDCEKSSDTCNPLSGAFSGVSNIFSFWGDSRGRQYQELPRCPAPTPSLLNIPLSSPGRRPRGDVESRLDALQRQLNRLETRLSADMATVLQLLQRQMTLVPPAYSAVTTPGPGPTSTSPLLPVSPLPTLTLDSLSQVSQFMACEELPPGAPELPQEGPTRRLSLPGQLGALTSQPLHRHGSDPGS

| Structure (SMILES) | hERG current change (%, negative = inhibition) at 10uM |
| --- | --- |
| CCOc1ccc2[nH]c(=O)c(CN(CCCO)S(=O)(=O)c3ccc(F)cc3)cc2c1 | -34.4% |
| O=C(NCc1ccccc1)c1ccc(Br)cc1Br | -4.2% |
| Cn1cccc1-c1cc(C(=O)N/N=C/c2ccccc2Cl)[nH]n1 | 13.1% |
| CCOc1ccccc1NC(=O)Nc1ccc(Br)cc1C | 24.3% |
| CC(C)(C)c1cc(-c2ccccc2)n[nH]1 | -18.3% |
| COc1ccc(C(=O)NC(=S)NNC(=O)c2ccccc2C)cc1 | 17.7% |
| CCN(CCNC(=O)Nc1ccc(Cl)cc1)c1ccccc1 | 11.3% |
| O=C1CSC(c2ccc3c(c2)OCO3)N1c1ccc(Oc2ccccc2)cc1 (centres unmarked) | -7.9% |
| Oc1ccc(-c2nnc(SCc3ccccc3)o2)cc1 | -8.15% |
| O=C(Nc1ccc([N+](=O)[O-])cc1)C(=O)Nc1cccc(C(=O)O)c1 | -6.06% |
| O=C1C2C3C=CC(C3)C2C(=O)N1Cc1cccnc1 (centres unmarked) | 3.96% |
| Cn1cccc1CNC(=S)Nc1ccccc1Cl | 4.04% |
| COc1cc(C(=O)N2C(=O)c3cccc(N)c3C2=O)cc(OC)c1OC | 17.4% |
| O=C(c1cc(F)c(F)cc1Cl)N1CCN(c2ncccn2)CC1 | 16.4% |
| Cc1ccc(CNC(=O)[C@@H]2CCC(=O)N2Cc2ccco2)cc1 | 18% |
| COc1ccc(-c2nc(CS(=O)CC(=O)NCc3ccc(Cl)cc3)c(C)o2)cc1 (centres unmarked) | -13.2% |
| CCOC(=O)/C=C1\NC(C)(C)Cc2cc(OC)c(O)cc21 | -9.32% |
| CCOC(=O)N1CCC(NC(=S)Nc2ccc3nc(N4CCN(C)CC4)cc(C)c3c2)CC1 | -1.48% |
| COc1ccc(/C=C2/SC(=S)N(CCC(=O)N3CCN(C)CC3)C2=O)cc1 | 3.99% |
| COc1ccccc1CNC(=O)C(=O)NCCC1CCCCN1S(=O)(=O)c1cccs1 (centres unmarked) | 3.86% |
| NS(=O)(=O)c1cccc(NC(=O)CCC(=O)c2cccs2)c1 | 17.1% |
| NC(=S)Nc1ccc(F)cc1F | 3.9% |
| CCCc1c(C)nc(N2CCN(c3ccccc3OC)CC2)[nH]c1=O | 25.2% |

| Structure (SMILES) | hERG current change (%, negative = inhibition) at 10uM |
| --- | --- |
| CCOC(=O)N1CCN(C(=O)Cn2cnc3ccccc3c2=O)CC1 | 6.6% |
| COc1ccc(C(=O)CC(=O)C(=O)Nc2cccc([N+](=O)[O-])c2C)cc1 | 16.5% |
| Cc1ccc(CCNC(=O)c2nnc(CS(=O)(=O)c3ccccc3)o2)cc1 | -8.64% |
| Cc1cc(C(=O)COC(=O)c2ccc([N+](=O)[O-])o2)c(C)n1CC1CCCO1 (centres unmarked) | -42.5% |
| COc1cccc(-c2ncc3ccccc3c2COC(=O)N2CCCCC2)c1 | -11.4% |
| COc1ccc(-n2ncc3c(NCc4cccs4)ncnc32)cc1 | 1.33% |
| Cc1nn(C)cc1S(=O)(=O)Nc1ccccc1Br | 13.7% |
| CC1(C)S/C(=N/N=C/c2cccs2)NC1=O | 10.1% |
| CCCCOC(=O)NS(=O)(=O)c1sc(CC(C)C)cc1-c1ccc(Cn2c(CC)nc3c(C)cc(C)nc32)cc1 | 5.9% |
| O=C(NCc1cccnc1)c1cn(CCc2ccccc2)nn1 | -11.4% |
| Cc1cc(=O)oc2cc(OC(C)C(=O)Nc3nccs3)ccc12 (centres unmarked) | -6.45% |
| CNC(=O)C1CC(=O)N(c2ccc(F)c(Cl)c2)C1 (centres unmarked) | -1.43% |
| O=c1c2ccccc2nc2n1CCN2Cc1ccc(Cl)cc1 | -51.9% |
| COC(=O)c1ccc(C(=O)OC)nc1 | 13% |
| CCn1c(=O)c(C(C)=O)nc2ccccc21 | -1.03% |
| O=c1cc(-c2ccccc2)c2c(O)cc(O)cc2o1 | -17.7% |
| COc1ccc(C2NC(=O)CCC2[N+](=O)[O-])cc1 (centres unmarked) | 23.5% |
| O=C(CN(C(=O)c1csnn1)c1cccc2c1CCCC2)NC1CCCC1 | 7.48% |
| C=CCNC(=O)CCc1nnc(C2(c3ccc(Cl)cc3)CCC2)o1 | 4.09% |
| COc1ccccc1CCNS(=O)(=O)CCNC(=O)c1ccccc1 | -14% |
| CCOC(=O)c1ccc(NC(=S)NCCc2ccc(OC)c(OC)c2)cc1 | -2.92% |
| CCOc1ccc(/C(C)=N/NC(=O)C(OC)c2ccccc2)cc1 (centres unmarked) | 28.6% |
| CN(C)S(=O)(=O)Nc1cccc(Br)c1 | -14.2% |

| Structure (SMILES) | hERG current change (%, negative = inhibition) at 10uM |
| --- | --- |
| O=C(Nc1cccc(F)c1)Nc1ccc(Cl)cn1 | 7.51% |
| O=C(Cn1cccn1)c1ccccc1 | 33.3% |
| O=C(CN1CCCCC1)Nc1nnc(-c2ccc([N+](=O)[O-])cc2)s1 | -14.1% |
| COC(=O)c1ccc(N=Cc2c(C(F)(F)F)[nH][nH]c2=O)cc1 | 27.2% |
| CCOC(=O)c1sc2nc(COC(=O)c3c(F)cccc3F)[nH]c(=O)c2c1C | 23.5% |
| O=C1C=C(c2ccc(Cl)c(C(F)(F)F)c2)C[C@@H](c2ccc(F)cc2)C1 | 26.4% |
| O=C(c1ccccn1)N1CCCC(N2CCN(c3cccc(C(F)(F)F)c3)CC2)C1 (centres unmarked) | -28.8% |
| COc1ccc(OCC(=O)Nc2ccc3c(c2)nc(CCN2CCCC2)n3C)cc1 | -55% |
| O=C(Nc1ccc2c(c1)OCO2)C1CCCCN1S(=O)(=O)c1ccc(F)cc1 (centres unmarked) | -18.3% |
| COc1ccc(CCNC(=O)CSc2ccc(-c3ccco3)nn2)cc1OC | 12.6% |
| NC(=S)N/N=C/c1ccccc1OCc1cccc(Cl)c1 | 8.44% |
| C/C(=N\NC(=O)c1cccc(S(=O)(=O)N2CCOCC2)c1)c1ccc(O)cc1 | 11.4% |
| Cc1ccc(S(=O)(=O)NNC(=O)CCC(=O)Nc2ccccc2Cl)cc1 | 9.9% |
| Cc1ccc[n+](-c2nc3ccccc3nc2C(=C=[N-])C#N)c1 | 9.43% |
| N=C1/C(=C\c2ccc(OC(=O)c3ccc(F)cc3)cc2)C(=O)N=C2SC(N3CCOCC3)=NN12 | 17.3% |
| O=C(COc1cccnc1[N+](=O)[O-])N1CCN(C(=O)c2ccco2)CC1 | -34.2% |
| C/C(Cl)=C/Cn1c(SCC(C)C)nc2c1c(=O)[nH]c(=O)n2C | 15.2% |
| CCOCc1cc(C)[nH]c(=O)c1C#N | -22.7% |
| CCNc1ccc2noc3c2c1C(=O)c1ccccc1-3 | 1.12% |
| NC(=O)NC(CC(=O)NCCc1ccc(S(N)(=O)=O)cc1)c1ccc(Cl)cc1 (centres unmarked) | 14.1% |
| O=C(CN1C(=O)NC2(CCCCCCC2)C1=O)N1CCN(C(=O)c2ccco2)CC1 | -5.03% |
| CN1CCN(C(=O)C2=C[C@@H](c3csc4ccccc34)C[C@@H](OCc3ccc(CO)cc3)O2)CC1 | -8.28% |
| CCCC(C)c1nnc(NC(=O)C(=O)OCC)s1 (centres unmarked) | 4.96% |

| Structure (SMILES) | hERG current change (%, negative = inhibition) at 10uM |
| --- | --- |
| COc1ccccc1N1CCN(c2cnccn2)CC1 | -2.25% |
| CC(C)NC(=O)c1ccccc1-c1ccccc1 | 15.9% |
| CC1(C)CC(=O)C2=C(C1)Nc1ccccc1NC2c1ccccc1F (centres unmarked) | 12.3% |
| CCc1ccc(CNC(=O)CN2C(=O)COc3ccccc32)cc1 | -4.31% |
| CC(=O)Nc1ccc(C(=O)NC(C)c2ccc(-n3ccnc3)cc2)cc1 (centres unmarked) | 7.74% |
| COc1ccc(-c2cnc3ccccc3n2)cc1NC(=O)CNC(=O)c1ccccc1 | 12.5% |
| COC(=O)c1[nH]c2ccc(F)cc2c1NS(=O)(=O)c1ccc(OC)cc1OC | -19.5% |
| COc1ccc(NC(=O)C2CCCO2)cc1 (centres unmarked) | -0.956% |
| CC(=O)Nc1ccc2c(c1)C(C)(C)C(C)N2C (centres unmarked) | 15% |
| CC1CC(=O)Nc2ccccc2N1C(=O)CSc1ncnc2sccc12 (centres unmarked) | -7.75% |
| COc1ccc(/C=C/C(=O)N2CCCc3ccccc32)cc1 | -16.8% |
| COC(=O)c1nnn(CC(=O)Nc2cc(Cl)ccc2C)c1C(=O)OC | 1.19% |
| COCc1nnc(NC(=O)CCc2ccccc2)s1 | -34.6% |
| COc1ccc(Oc2coc3cc(O)ccc3c2=O)cc1 | -5.68% |
| COc1ccc(-n2c(C)c(C(C)=O)c3cc(OC(C)=O)ccc32)cc1 | 25.8% |
| Cc1cccc(NC(=O)COC(=O)CCc2ccccc2)c1C | 10.7% |
| CN(CC(=O)Nc1ccc(S(=O)(=O)N2CCOCC2)cc1)Cc1ccc(F)cc1 | -14.2% |
| CC(C)c1nnc(SCC(=O)N2CCc3ccccc32)n1N | 19.2% |
| CCc1ccc(OCC(=O)N/N=C\c2ccco2)c([N+](=O)[O-])c1 | -67.4% |
| COCCOC(=O)C1=C(C)NC2=C(C(=O)CC(C)(C)C2)C1c1ccc(N(C)C)cc1 (centres unmarked) | 3.33% |
| Cc1noc(-c2ccccc2)c1NC(=O)Nc1ccccc1 | 9.77% |
| Cc1ccc(S(=O)(=O)N(C)CC(=O)OCC(=O)N2CCN(c3ccccc3)CC2)cc1 | -24.5% |
| CC(C)[N+]1(C)[C@@H]2CC[C@H]1CC(OC(=O)C(CO)c1ccccc1)C2.[Br-] (some centres unmarked) | 11.7% |
